US6800434B2, “Peptides as NS3-serine protease inhibitors of hepatitis C virus” (priority 2000, dated 2004)
Where two headings read alike, the source gives them in different places. Starred links: 1 amine or outer side, 2 acyl side, 3 side chain; linkers in the order of their positions; H or OH if unused. Non-standard residues stand in square brackets, D forms with d. Residues, ends and D or L forms follow the SMILES beside them. *: point of attachment. Pro(trans-4-NH2) = O=C([C@@H]1C[C@@H](N[*:3])CN1[*:1])[*:2]; X16 = O=C([C@@H]1C[C@@H](CNS(=O)(=O)c2ccccc2)CN1[*:1])[*:2]; X7 = COc1ccc(C(=O)N[C@@H]2C[C@@H](C(=O)[*:2])N([*:1])C2)cc1; X22 = O=C(NC[C@@H]1C[C@@H](C(=O)[*:2])N([*:1])C1)Nc1ccccc1; X34 = O=C(NC[C@@H]1C[C@@H](C(=O)[*:2])N([*:1])C1)Oc1ccccc1; X21 = O=C(NC[C@@H]1C[C@@H](C(=O)[*:2])N([*:1])C1)c1ccccc1; X2 = COc1ccc(C[C@@H]2C[C@@H](C(=O)[*:2])N([*:1])C2)cc1; X12 = O=C(O)C[C@@H]1C[C@@H](C(=O)[*:2])N([*:1])C1; N(2-Aminoethyl)Gly = O=C(CN(CCN[*:3])[*:1])[*:2]; Pro(4R-Bn) = O=C(O)[C@@H]1C[C@@H](Cc2ccccc2)CN1; Benzoyl(3-OPh) = O=C(c1cccc(Oc2ccccc2)c1)*; X15 = O=C(NCCN(CC(=O)[*:2])[*:1])c1ccccc1; Ala(SO2Me) = CS(=O)(=O)C[C@H](N)C(=O)O; Met(O2) = CS(=O)(=O)CC[C@H](N)C(=O)O; X1 = CCC[C@H](N[*:1])C(=O)C(=O)[*:2]; Fmoc = O=C(OCC1c2ccccc2-c2ccccc21)*; N(CH2CH2COOH)Gly = O=C(O)CCNCC(=O)O

Target: Recombinant heterodimeric HCV NS3/NS4A protease (strain 1a) (Hepatitis C virus genotype 1a, UniProt P27958)
Test: biochemical

CCC[C@H](NC(=O)[C@H](CS(C)(=O)=O)NC(=O)[C@@H](NC(=O)[C@@H](NC(=O)[C@H](CCC(=O)O)NC(=O)[C@H](CCC(=O)O)NC(C)=O)C(C)C)C(C)C)C(=O)C(=O)NCC(=O)O [Ac-EEVV-C(O2,Me)-nV-(CO)-G-OH] (Ac-EEVV[Ala(SO2Me)][X1]G-OH)
Ki (Ki* Range): 0.001 to 0.1 µM

CCC[C@H](NC(=O)CN(CCC(=O)O)C(=O)[C@@H](NC(=O)[C@@H](NC(=O)[C@H](CCC(=O)O)NC(=O)[C@H](CCC(=O)O)NC(C)=O)C(C)C)C(C)C)C(=O)C(=O)NCC(=O)O [Ac-EEVV-G(N-Et(CO2H))-nV-(CO)-G-OH] (Ac-EEVV[N(CH2CH2COOH)Gly][X1]G-OH)
Ki (Ki* Range): 0.001 to 0.1 µM

CCC[C@H](NC(=O)CN(CCNC(=O)c1ccccc1)C(=O)[C@@H](NC(=O)[C@@H](NC(=O)[C@H](CCC(=O)O)NC(=O)[C@H](CCC(=O)O)NC(C)=O)C(C)C)C(C)C)C(=O)C(=O)NCC(=O)O [Ac-EEVV-G(N-Et(NHBz))-nV-(CO)-G-OH, Ac-Glu-Glu-Val-Val-Gly(N-Et(NHBz))-nVal(CO)-Gly-OH] (Ac-EEVV[X15][X1]G-OH)
Ki (Ki* Range): 0.101 to 0.999 µM

CCC[C@H](NC(=O)CN(CCNC(=O)c1cccc(Oc2ccccc2)c1)C(=O)[C@@H](NC(=O)[C@@H](NC(=O)[C@H](CCC(=O)O)NC(=O)[C@H](CCC(=O)O)NC(C)=O)C(C)C)C(C)C)C(=O)C(=O)NCC(=O)O [Ac-EEVV-G(N-Et(NHBzl(3-OPh)))-nV-(CO)-G-OH] (Ac-EEVV[N(2-Aminoethyl)Gly](Benzoyl(3-OPh))[X1]G-OH)
Ki (Ki* Range): 0.001 to 0.1 µM

CCC[C@H](NC(=O)CN(CCCCC(N)C(=O)O)C(=O)[C@@H](NC(=O)[C@@H](NC(=O)[C@H](CCC(=O)O)NC(=O)[C@H](CCC(=O)O)NC(C)=O)C(C)C)C(C)C)C(=O)C(=O)NCC(=O)O (stereo partly shown) [Ac-EEVV-G(N-Pe(5-NH2,5-CO2H))-nV-(CO)-G-OH]
Ki (Ki* Range): 0.001 to 0.1 µM

CCC[C@H](NC(=O)[C@H](CCS(C)(=O)=O)NC(=O)[C@@H](NC(=O)[C@@H](NC(=O)[C@H](CCC(=O)O)NC(=O)[C@H](CCC(=O)O)NC(C)=O)C(C)C)C(C)C)C(=O)C(=O)NCC(=O)O [Ac-EEVV-M(O2)-nV-(CO)-G-OH] (Ac-EEVV[Met(O2)][X1]G-OH)
Ki (Ki* Range): 0.101 to 0.999 µM

CCC[C@H](NC(=O)[C@@H]1C[C@@H](CC(=O)O)CN1C(=O)[C@@H](NC(=O)[C@@H](NC(=O)[C@H](CCC(=O)O)NC(=O)[C@H](CCC(=O)O)NC(C)=O)C(C)C)C(C)C)C(=O)C(=O)NCC(=O)O [Ac-EEVV-P(4t-AcOH)-nV-(CO)-G-OH] (Ac-EEVV[X12][X1]G-OH)
Ki (Ki* Range): 0.001 to 0.1 µM

CCC[C@H](NC(=O)[C@@H]1C[C@@H](Cc2ccc(OC)cc2)CN1C(=O)[C@@H](NC(=O)[C@@H](NC(=O)[C@H](CCC(=O)O)NC(=O)[C@H](CCC(=O)O)NC(C)=O)C(C)C)C(C)C)C(=O)C(=O)NCC(=O)O [Ac-EEVV-P(4t-Bn(4-OMe))-nV-(CO)-G-OH] (Ac-EEVV[X2][X1]G-OH)
Ki (Ki* Range): 0.001 to 0.1 µM

CCC[C@H](NC(=O)[C@@H]1C[C@@H](Cc2ccccc2)CN1C(=O)[C@@H](NC(=O)[C@@H](NC(=O)[C@H](CCC(=O)O)NC(=O)[C@H](CCC(=O)O)NC(C)=O)C(C)C)C(C)C)C(=O)C(=O)NCC(=O)O [Ac-EEVV-P(4t-Bn)-nV-(CO)-G-OH] (Ac-EEVV[Pro(4R-Bn)][X1]G-OH)
Ki (Ki* Range): 0.001 to 0.1 µM

CCC[C@H](NC(=O)[C@@H]1C[C@@H](CNC(=O)Oc2ccccc2)CN1C(=O)[C@@H](NC(=O)[C@@H](NC(=O)[C@H](CCC(=O)O)NC(=O)[C@H](CCC(=O)O)NC(C)=O)C(C)C)C(C)C)C(=O)C(=O)NCC(=O)O [Ac-EEVV-P(4t-MeNHCO2Ph)-nV-(CO)-G-OH] (Ac-EEVV[X34][X1]G-OH)
Ki: 0.001 to 0.1 µM

CCC[C@H](NC(=O)[C@@H]1C[C@@H](CNC(=O)c2ccccc2)CN1C(=O)[C@@H](NC(=O)[C@@H](NC(=O)[C@H](CCC(=O)O)NC(=O)[C@H](CCC(=O)O)NC(C)=O)C(C)C)C(C)C)C(=O)C(=O)NCC(=O)O [Ac-EEVV-P(4t-MeNHCOPh)-nV-(CO)-G-OH] (Ac-EEVV[X21][X1]G-OH)
Ki (Ki* Range): 0.001 to 0.1 µM

CCC[C@H](NC(=O)[C@@H]1C[C@@H](CNS(=O)(=O)c2ccccc2)CN1C(=O)[C@@H](NC(=O)[C@@H](NC(=O)[C@H](CCC(=O)O)NC(=O)[C@H](CCC(=O)O)NC(C)=O)C(C)C)C(C)C)C(=O)C(=O)NCC(=O)O [Ac-EEVV-P(4t-MeNHSO2Ph)-nV-(CO)-G-OH] (Ac-EEVV[X16][X1]G-OH)
Ki (Ki* Range): 0.001 to 0.1 µM

CCC[C@H](NC(=O)[C@@H]1C[C@@H](CNC(=O)Nc2ccccc2)CN1C(=O)[C@@H](NC(=O)[C@@H](NC(=O)[C@H](CCC(=O)O)NC(=O)[C@H](CCC(=O)O)NC(C)=O)C(C)C)C(C)C)C(=O)C(=O)NCC(=O)O [Ac-EEVV-P(4t-MeUreaPh)-nV-(CO)-G-OH] (Ac-EEVV[X22][X1]G-OH)
Ki (Ki* Range): 0.001 to 0.1 µM

CCC[C@H](NC(=O)[C@@H]1C[C@@H](NC(=O)OCC2c3ccccc3-c3ccccc32)CN1C(=O)[C@@H](NC(=O)[C@@H](NC(=O)[C@H](CCC(=O)O)NC(=O)[C@H](CCC(=O)O)NC(C)=O)C(C)C)C(C)C)C(=O)C(=O)NCC(=O)O [Ac-EEVV-P(4t-NH-Fmoc)-nV-(CO)-G-OH] (Ac-EEVV[Pro(trans-4-NH2)](Fmoc)[X1]G-OH)
Ki (Ki* Range): 0.001 to 0.1 µM

CCC[C@H](NC(=O)[C@@H]1C[C@@H](NC(=O)c2cccc(Oc3ccccc3)c2)CN1C(=O)[C@@H](NC(=O)[C@@H](NC(=O)[C@H](CCC(=O)O)NC(=O)[C@H](CCC(=O)O)NC(C)=O)C(C)C)C(C)C)C(=O)C(=O)NCC(=O)O [Ac-EEVV-P(4t-NHBzl(3-OPh))-nV-(CO)-G-OH] (Ac-EEVV[Pro(trans-4-NH2)](Benzoyl(3-OPh))[X1]G-OH)
Ki (Ki* Range): 0.001 to 0.1 µM

CCC[C@H](NC(=O)[C@@H]1C[C@@H](NC(=O)c2ccc(OC)cc2)CN1C(=O)[C@@H](NC(=O)[C@@H](NC(=O)[C@H](CCC(=O)O)NC(=O)[C@H](CCC(=O)O)NC(C)=O)C(C)C)C(C)C)C(=O)C(=O)NCC(=O)O [Ac-EEVV-P(4t-NHBzl(4-OMe))-nV-(CO)-G-OH] (Ac-EEVV[X7][X1]G-OH)
Ki (Ki* Range): 0.001 to 0.1 µM
